# The list shows a part of the results. One pool of 16,384 single-stranded DNAs met each Rep nickase domain in vitro (1 h at 37 °C, 3 µM enzyme); the outer parts of the 90-letter strands are left off. Uncut reads are compared with the no-enzyme pool on a log2 scale; uncut sequences lie near 0, cut ones below; no hit call is given. Shares of all reads are compared; values above 0 arise when much of the pool is cut.
# Tests used:
# Assay in all cases: uncleaved DNA left, log2 of reads against the no-enzyme library (log2 ratio); higher = less cleavage (more negative = more Rep cleavage of the k-mer); sequences stand for … in CTCGTCCG…ACCGGAGA
# [1] = system: T1, Rep nickase domain of Muscovy duck circovirus
# T1 sequence (protein, residues 1-111, tag omitted): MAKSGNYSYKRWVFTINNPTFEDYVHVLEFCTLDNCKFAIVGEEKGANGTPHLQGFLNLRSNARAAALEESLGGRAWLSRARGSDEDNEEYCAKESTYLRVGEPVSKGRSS
# Protocol: (§1)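 A pool of 90-nt single-stranded DNAs with seven random bases just before the constant AC of the nick site (name = the seven bases) was cut by 3 µM recombinant His6-SUMO-tagged Rep nickase domain (300 nM DNA, 50 mM HEPES pH 8.0, 50 mM NaCl, 1 mM MnCl2, 1 h, 37 °C, three replicates). Uncut DNA was amplified and sequenced.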
# [2] = system: T2, Rep nickase domain of banana bunchy top virus
# T2 sequence (protein, residues 1-94, tag omitted): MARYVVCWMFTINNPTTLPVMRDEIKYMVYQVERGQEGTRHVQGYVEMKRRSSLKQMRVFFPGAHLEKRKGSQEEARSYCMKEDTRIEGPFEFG
# Protocol: as §1
# [3] = system: T3, Rep nickase domain of cabbage leaf curl virus
# T3 sequence (protein, residues 1-116, tag omitted): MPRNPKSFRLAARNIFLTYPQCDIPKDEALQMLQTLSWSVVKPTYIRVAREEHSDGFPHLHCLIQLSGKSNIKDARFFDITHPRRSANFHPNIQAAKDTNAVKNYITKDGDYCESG
# Protocol: as §1
# [4] = system: T4, Rep nickase domain of chickpea chlorotic dwarf virus
# T4 sequence (protein, residues 1-124, tag omitted): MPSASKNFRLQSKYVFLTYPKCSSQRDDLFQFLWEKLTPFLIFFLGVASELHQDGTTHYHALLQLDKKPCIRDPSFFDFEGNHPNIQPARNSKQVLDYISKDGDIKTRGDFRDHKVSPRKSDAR
# Protocol: as §1
# [5] = system: T5, Rep nickase domain of faba bean necrotic yellows virus
# T5 sequence (protein, residues 1-98, tag omitted): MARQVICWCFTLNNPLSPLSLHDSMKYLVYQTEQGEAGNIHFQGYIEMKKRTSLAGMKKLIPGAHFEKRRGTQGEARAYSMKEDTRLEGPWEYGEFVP
# Protocol: as §1
# [6] = system: T6, Rep nickase domain of maize striate mosaic virus
# T6 sequence (protein, residues 1-117, tag omitted): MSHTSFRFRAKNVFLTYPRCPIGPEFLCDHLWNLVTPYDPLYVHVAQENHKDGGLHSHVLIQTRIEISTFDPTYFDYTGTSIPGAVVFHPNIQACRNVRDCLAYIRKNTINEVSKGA
# Protocol: as §1
# [7] = system: T7, Rep nickase domain of porcine circovirus 2
# T7 sequence (protein, residues 2-116, tag omitted): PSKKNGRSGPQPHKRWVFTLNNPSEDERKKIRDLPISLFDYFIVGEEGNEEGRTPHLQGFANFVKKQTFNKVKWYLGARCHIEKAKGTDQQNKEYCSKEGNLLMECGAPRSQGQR
# Protocol: as §1
# [8] = system: T8, Rep nickase domain of tomato golden mosaic virus
# T8 sequence (protein, residues 1-124, tag omitted): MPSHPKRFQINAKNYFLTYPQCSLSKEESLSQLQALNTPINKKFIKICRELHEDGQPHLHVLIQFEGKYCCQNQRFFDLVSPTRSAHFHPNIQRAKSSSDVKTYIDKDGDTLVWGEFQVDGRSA
# Protocol: as §1
# [9] = system: T9, Rep nickase domain of tomato yellow leaf curl virus
# T9 sequence (protein, residues 1-136, tag omitted): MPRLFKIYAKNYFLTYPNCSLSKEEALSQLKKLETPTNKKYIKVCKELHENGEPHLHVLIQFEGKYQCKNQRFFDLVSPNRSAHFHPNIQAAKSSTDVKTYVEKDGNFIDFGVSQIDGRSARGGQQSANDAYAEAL
# Protocol: as §1
# [10] = system: T10, Rep nickase domain of wheat dwarf virus
# T10 sequence (protein, residues 1-137, tag omitted): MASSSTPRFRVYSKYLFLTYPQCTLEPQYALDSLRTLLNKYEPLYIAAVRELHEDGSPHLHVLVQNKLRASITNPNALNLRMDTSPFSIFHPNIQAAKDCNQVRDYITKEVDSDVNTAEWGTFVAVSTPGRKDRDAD
# Protocol: as §1
Sequence,uncleaved DNA left (log2) [1],uncleaved DNA left (log2) [2],uncleaved DNA left (log2) [3],uncleaved DNA left (log2) [4],uncleaved DNA left (log2) [5],uncleaved DNA left (log2) [6],uncleaved DNA left (log2) [7],uncleaved DNA left (log2) [8],uncleaved DNA left (log2) [9],uncleaved DNA left (log2) [10]
CTTCGGT,0.0604,-0.112,0.273,0.465,-0.0816,0.406,0.00189,-0.0473,-0.11,-0.0752
GCCTTTA,-0.0262,-0.0124,0.139,-0.187,0.138,0.284,-0.0531,-0.00829,0.0243,0.0762
TAGAGAA,0.0699,-0.137,0.186,-0.121,-0.0258,-0.0804,-0.968,0.0296,-0.132,0.0418
GATTACG,-0.0202,-0.0247,-0.806,-0.486,-0.0308,-0.854,0.014,-0.0224,-0.0968,-0.0841
CCCCGGG,-0.121,-0.0329,0.226,0.323,-0.149,-0.051,-0.0143,0.0295,0.0268,-0.000754
TTTTCTC,-0.476,-0.141,0.05,-0.39,-0.0566,-0.487,-0.217,-0.127,-0.00145,-0.0861
ACGCCCT,-0.00593,-0.0203,-0.303,-1.53,-0.107,-0.542,-0.146,0.0526,-0.215,-0.00789
ACGACAT,-0.0185,0.0319,0.523,1.55,-0.0549,1.48,0.146,0.0748,-0.0896,0.0776
TAGCGCG,0.00742,0.000631,-0.759,-0.33,-0.0359,-0.949,0.0349,0.0557,-0.0702,-0.123
CGTGGAC,-0.0936,-0.0277,0.617,1.65,-0.138,1.95,0.0338,-0.106,-0.0259,-0.0267
TTTTCGA,-0.0553,-0.0448,-0.322,-0.652,-0.00569,-1.16,0.0187,-0.0925,-0.0206,-0.0771
TCGACGA,-0.0885,-0.0121,-0.0112,0.265,-0.098,0.314,-0.000991,-0.0905,0.0161,0.0515
CCTTACT,-3.22,-0.743,-0.504,-2.91,-0.0622,-1.01,-3.6,-0.0143,-0.0505,-0.311
TGCAACT,-0.0225,-0.0236,0.183,-1.71,-0.136,0.707,-0.158,0.0979,-0.109,-0.0465
CCCTTCT,-1.29,-0.103,-0.193,-2.65,0.0217,-0.841,-2.53,-0.293,-0.0432,-0.0257
CTCGCTC,-0.0602,-0.0615,-0.138,-0.572,-0.169,-0.734,-0.179,-0.133,0.0197,0.00624
CCGATTC,0.0973,0.00545,0.0825,-0.104,0.0941,-0.467,0.0353,0.0741,0.0159,-0.0072
TAGATCC,-0.0364,-0.017,0.113,0.025,0.0403,0.262,-0.13,-0.0261,0.0274,0.105
TGCTGGG,-0.0442,0.0108,-0.245,-0.429,0.0329,-0.795,0.0961,0.0403,0.0383,-0.0572
AACCAAT,-0.0575,0.0111,-0.312,-1.99,-0.138,-0.492,-1.57,-0.014,-0.109,-0.141
CGCTATA,-0.00442,-0.0772,-0.152,-1.35,-0.0106,-0.507,0.0234,-0.0697,0.00535,-0.107
CGCGTAG,-0.147,-0.208,-0.421,-0.38,-0.117,-0.761,0.0508,-0.0273,-0.0981,-0.209
TACACAC,0.0517,-0.0246,-0.0522,-0.764,0.0372,-0.746,-0.0173,-0.1,-0.0322,-0.0489
AAACCCC,-0.147,-0.00532,0.186,-0.256,-0.0204,0.0198,-0.693,-0.0788,0.0261,0.0383
GGAAATT,0.0489,-0.00493,0.749,1.83,-0.000511,2.11,0.102,-0.118,0.0161,0.0591
ATGCCTC,-0.0726,-0.272,-0.0599,0.188,-0.14,0.456,-0.0861,-0.288,-0.249,-0.12
AAAATGC,-0.00188,0.00962,-0.685,-0.603,-0.0169,-1.28,0.057,0.0365,0.0615,-0.0494
TCGCGTG,-0.0413,-0.0961,-0.545,-0.816,0.0412,-0.789,0.0918,0.0619,-0.172,-0.153
ATCTCTT,-2.11,-1.09,-0.456,-2.47,-0.36,-0.264,-3.25,-0.145,-0.166,-0.224
CGGTGCA,0.0349,-0.0252,-0.111,0.167,0.0187,-0.258,0.0112,0.0818,0.0165,-0.0265

# — the supplement of paper PMC7826260
